Three compounds from PubChem BioAssay AID1963845 (Molecular Pharmacology Branch, DTP, NCI, 2024) can be followed below.

Molecules are shown by their SMILES. Some entries of the source have several records that differ or are many. Only these are listed. The source may hold further records. The records of an entry repeat one measurement (runs, samples, wells, individuals or studies). Additions like (4×) count equal records among those shown.

The subject of the assay is 429239-143-T-J1-PDC complex spheroid viability. Put plainly: Anticancer human tumor 429239-143-T-J1-PDC patient-derived small cell lung carcinoma cell line growth inhibition [POLQ]. The conditions noted are these: stronger effect = lower value. Here is the method: Multicellular complex tumor spheroid response to Polymerase (POL) inhibitors (novobiocin, ART-558, RP6685) in combination with a variety of drugs and investigational agents in selected tumor cell lines
The POL inhibitors (novobiocin, ART-558, and RP6685) were evaluated both individually and in combination with standard of care and investigational anticancer small molecules within a complex spheroid model of solid tumors. . Complex spheroids include a stromal component modeled by human endothelial cells (HUVEC) and fibroblasts modeled by human mesenchymal stem cells (MSCs). The concentration ranges selected for each drug and investigational agent were based upon clinically achievable concentrations if the clinical Cmax of the agent was known.
Compounds. The drugs and investigational agents: novobiocin (NSC847541), ART-558 (NSC835418), RP-6685 (NSC848927), peposertib (NSC802822), ceralasertib (NSC780249), elimusertib (NSC800525), camonsertib (NSC841442), AZD-1390 (NSC803789), olaparib (NSC753686), talazoparib (NSC767125), rucaparib (NSC756644), sotorasib (NSC818433), MRTX-1133 (NSC836407), SN-38 (NSC673596), topotecan (NSC609699), epotoside (NSC141540), doxorubicin (NSC123127), gemcitabine (NSC613327), 5-fluorouracil (NSC19893), paclitaxel (NSC125973), vemurafenib (NSC761431), MSA-2 (NSC828583), SN-011 (NSC837082), adavosertib (NSC754352), prexasertib (NSC758257), carboplatin (NSC241240) and oxaliplatin (NSC266046), were obtained from the National Cancer Institute (NCI) Developmental Therapeutics Program Chemical Repository (21). The FDA-approved anticancer drug set is available from the Developmental Therapeutics Program at https://dtp.cancer.gov/organization/dscb/obtaining/. […] The stock solutions were prepared in dimethyl sulfoxide (DMSO, Sigma-Aldrich, St. Louis, MO, cat. D2650), except for the platinum compounds which were prepared in saline (Quality Biological, Gaithersburg, MD, cat. 114-055-101), at 800-fold the tested concentration and stored at -70 degrees C prior to their use. All drugs and investigational agents were tested over a range starting from a high concentration at or near the clinical Cmax and decreasing in half-log increments. If the clinical Cmax for an agent had not been determined, the highest concentration tested was 10 microM, except for SN-38, which was tested at a high concentration of 1 microM.
Cell Culture. All cells were maintained in an incubator at 37 degrees C and 5% CO2 with 95% humidity. The PDC lines were cultured according to standard operating procedures established by the NCI PDMR (https://pdmr.cancer.gov). Table 3 of the manuscript, lists the cell lines along with the number of the three cell types plated to form the mct-spheroids and media for tumor cell growth. […]
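Also: luminescence signal used as surrogate measure of viable cells; spheroids exposed to compounds for seven days before readout; 100% = DMSO vehicle control viability as luminescence relative to vehicle.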

On to `Nc1ccc(C#CCN(C(=O)Cc2ncc(C(F)(F)F)cc2C(F)(F)F)c2ccc(F)cc2)nn1`, for which the viability, T/C (compound alone 3.16 µM) is 104 (2×), 108 (2×), 106 (2×), 109, 113, 107, 105, 122, 116, 93.1%. With `COC1C(OC(N)=O)C(O)C(Oc2ccc3c(O)c(NC(=O)c4ccc(O)c(CC=C(C)C)c4)c(=O)oc3c2C)OC1(C)C` (centres undefined), the viability, T/C (compound alone 1 µM) was 102, 116, 109, 105 (2×), 103, 120, 110, 108, 123, 97.3, 101, 99% and the viability, T/C (compound alone 10 µM) was 100, 109, 98.4, 91.8, 85.1, 96.7, 81.7, 89.3, 105 (2×), 103, 85.5, 97.7%.

For `COc1ccc([C@@H](O)c2cc(-c3ncnc4cc(N5CCOCC5)ccc34)c(F)cc2Cl)nn1`, where the note is “compound alone 10 µM”, the viability, T/C was 13.8%, 8.72%, 49.9%.
